Experimental data: PubChem BioAssay AID2451 (National Center for Advancing Translational Sciences (NCATS), 2010)
Values joined by “and” are separate entries in the source; they are usually repeats but may differ in a detail not shown here. Equal values may be shown once. Screen size: about 290,000 compounds; about 2,100 (0.72%) were called active. The inconclusive results got no clear call from the source; some entries with a clear call stand among them for comparison. Calls come from the whole dose curve; as a rule, active = well fitted inhibition curve with a large enough effect; inconclusive = small, poorly fitted or top-dose-only effect, or effect the other way; inactive = flat fitted curve, though single readings scatter. Potencies beside an inconclusive call are fits to weak or partial responses and may not hold up.

Each compound was assayed against Fructose-bisphosphate aldolase (Giardia intestinalis (strain ATCC 50803 / WB clone C6)) (UniProt A8B2U2) (assay: qHTS Assay for Inhibitors of Fructose-1,6-bisphosphate Aldolase from Giardia Lamblia). Details: purified Giardia FBPA; activity, negative = inhibition: at 59.6 µM (top of the series) unless noted.
Description: Assay Provider: Osnat Herzberg, University of Maryland
The objective of this project is to obtain compounds that inhibit Giardia lamblia growth. G. lamblia is a human pathogen which afflicts impoverished nations; it is the most common cause of outbreaks of diarrhea in the United States. During the course of our study of potential drug targets in Giardia, we have identified the Class II (Zn2+ functions in electrophilic catalysis) fructose-1,6-bisphosphate aldolase (FBPA) as an excellent candidate for drug targeting. FBPA is a key glycolytic pathway enzyme, essential for G. lamblia survival. The human FBPA belongs to the Class I aldolases, which have a different substrate binding site structure and a radically different catalytic mechanism (employing a lysine-Schiff base intermediate). Therefore, affinity-based or mechanism-based inhibitors of the Giardia FBPA are expected not to interfere with the catalytic function of the human FBPA.
A glyceraldehyde-3-phosphate dehydrogenase/triose phosphate isomerase/NAD/arsenate coupled assay was adapted to the 1536-well HTP format for use in the primary screen. This was done by coupling it to a diaphorase/resazurin/resorufin reaction that can be monitored by fluorescence (excitation, 544 nm; emission, 590 nm). Compounds identified in this screen will be further evaluated by coupling the glycerol-3-phosphate/triose phosphate isomerase/NADH assay to a phenazine methosulfate/tetranitroblue tetrazolium color reaction. False positives due to the dehydrogenases and diaphorase inhibition will be eliminated, and selectivity assay will triage inhibitors of mammalian triose phosphate isomerase and the Class I FBPA. G. lamblia FBPA inhibitors identified by the in vitro analyses will be examined for growth inhibition of Giardia trophozoites, and for cytotoxicity in human cells.
Step,Parameter,Value,Description
1,Enzyme reagent,2 uL,40 nM FBPA
2,Compound,23 nL,3.68 nM-57.5 uM final concentration
3,Time,10 min,RT Incubation
4,Substrate/detection Reagent,2 uL,Substrate + enzyme coupling system + AmpLite Red kit
5,Time,20 min,RT Incubation
6,Detector,525 nm/598 nm (Fluorescence),ViewLux Fluorescence Read (Read 1)
1,Medium-binding black solid-bottom Kalypsys plates. FRD or Kalypsys dispenser, 2 uL of FBPA enzyme. Bottle kept at 4C.
2,Compound Library (10 mM ,1:5 dilution). Pin-transferred for a [final] range of 3.68 nM-57.5 uM.
4,FRD or Kalypsys dispenser, 2 uL of reaction mixture. Bottle kept at 4C and covered in foil to protect from light.
6,ViewLux Protocol 1194; Excitation filter wheel A (525/20 Pol; BODIPY TMR FP), Emission filter wheel B (598/25 S; BODIPY TMR FP S).
Keywords: Fructose-bisphosphate aldolase, FBPA , Giardia lamblia , Giardia, HTS, Inhibitors
% is set by controls: 0 for no effect and ±100 for the full control effect; potency is the fitted concentration of half-maximal effect; tags give direction and shape of the fitted curve.
Note: nearly all actives have a fitted effect of over 55% in size.

UniProt A8B2U2, sequence (A8B2U2 whole entry, looked up): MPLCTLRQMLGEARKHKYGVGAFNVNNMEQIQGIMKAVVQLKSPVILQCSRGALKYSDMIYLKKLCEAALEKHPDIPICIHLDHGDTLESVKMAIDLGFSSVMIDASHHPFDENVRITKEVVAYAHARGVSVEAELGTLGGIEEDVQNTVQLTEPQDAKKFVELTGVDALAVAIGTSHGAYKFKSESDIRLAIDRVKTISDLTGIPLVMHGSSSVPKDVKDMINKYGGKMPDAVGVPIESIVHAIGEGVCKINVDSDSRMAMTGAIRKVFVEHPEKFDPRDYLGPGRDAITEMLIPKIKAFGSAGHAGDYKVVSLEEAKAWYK

Structure (SMILES)	Potency	activity, negative = inhibition
COc1ccc(/C=N/NC(N)=S)cc1	inconclusive: 17.7 µM [inhibitor, single point]	
CCc1nc2cccnc2n1-c1ccc(CC(=O)NC(C)CC)cc1 (stereo unspecified)		inactive: 2.35%
C[C@H]1CCC/C=C/[C@@H]2C[C@H](O)C[C@H]2[C@H](O)/C=C/C(=O)O1		inactive: 5.29%
COc1ccc(NC(=O)NCCN2CCc3ccccc3C2)cc1	inconclusive: 35.4 µM [inhibitor, single point]	
Cc1ccc(OCCN2CCN(CC(O)Cn3c4ccccc4c4ccccc43)CC2)cc1 (stereo unspecified)	inconclusive: 17.7 µM [inhibitor, single point]	
Cc1ccccc1Nc1nnc(SCC(=O)NCc2ccco2)s1		inactive: 5.76%
COc1cc2nc(=S)n3[nH]c(CCn4nc(C)cc4C)nc3c2cc1OC	inconclusive: 1.99 µM [inhibitor, single point]	
COc1cccc(NC(=O)c2ncn[nH]2)c1	inconclusive: 17.7 µM [inhibitor, single point]	
Oc1ccc(N=C/C=C/c2cccc(Br)c2)cc1-c1nc2ccccc2s1	inconclusive: 14.1 µM [inhibitor, partial curve]	
COc1ccc(OC)c(C(=O)CSc2nc3ncccc3[nH]2)c1	inconclusive: 5.62 µM [inhibitor, full curve]	
CCC(C)NCCCOc1ccc(C)cc1OC (stereo unspecified)	inconclusive: 17.7 µM [inhibitor, partial curve]	
CCCC(=O)NC(c1ccc(C(C)C)cc1)c1ccc2cccnc2c1O (stereo unspecified)	inconclusive: 31.6 µM [activator, single point]	
Cc1ccc(NN=C2c3ccccc3-c3ccccc32)cc1		inactive: -13.9%
COc1ccc(CN2CCC(N(CCc3ccccc3)Cc3ccccc3)CC2)c(OC)c1	inconclusive: 15.8 µM [inhibitor, partial curve]	
CCn1nc(C(=O)NC2=NCCS2)c2ccccc2c1=O		inactive: -1.37%
O=C(NCc1ccccn1)C1(C(F)(F)F)C/C(=C\Cc2ccccc2)CCCO1 (stereo unspecified)	inconclusive: 17.7 µM [inhibitor, single point]	
O=C(CSc1nncc2ccccc12)Nc1cccc(C(=O)O)c1	inconclusive: 44.6 µM [inhibitor, single point]	
Cc1ccc(NC(=O)CN(C)Cc2nc3ccccc3c(=O)[nH]2)c(Br)c1	inconclusive: 2.51 µM [inhibitor, full curve, poor fit]	
O=C(NCCOc1ccccc1Cl)C(=O)c1c[nH]c2ccccc12		inactive: -5.42%
COC(=O)Cc1n[nH]c(=S)[nH]c1=O	inconclusive: 19.9 µM [inhibitor, single point]	
CN1CCCCC1c1ccc(-c2cccnc2)nc1 (stereo unspecified)	inconclusive: 22.3 µM [inhibitor, single point] and inconclusive: 17.7 µM [inhibitor, single point]	
Cc1cc(C)c(S(=O)(=O)/N=C2\C=C(Nc3ccc(C(=O)O)cc3)C(=O)c3ccccc32)c(C)c1	inconclusive: 0.631 µM [inhibitor, full curve]	
COc1cc(Cl)ccc1NC(=S)N(CCN1CCOCC1)C1CCN(C(C)=O)CC1	active: 17.7 µM	

Structure (SMILES)	Potency	activity, negative = inhibition
O=[N+]([O-])c1ccc(CNc2cccc(Cl)c2)s1	inconclusive: 25.1 µM [inhibitor, single point]	
Cn1c(OCc2ccco2)nc2c1c(=O)n(Cc1ccc(Cl)c(Cl)c1)c(=O)n2C		inactive: 7.66%
COc1ccc(NC2CCCN(C(=O)c3cccc(C(F)(F)F)c3)C2)cc1OC (stereo unspecified)	inconclusive: 4.47 µM [inhibitor, partial curve]	
CCOC(=O)CSC1=C(C#N)C(c2ccc(F)cc2)C(C(C)=O)=C(C)N1 (stereo unspecified)	inconclusive: 15.8 µM [inhibitor, partial curve]	
CN(C)C(=O)c1cn(-c2ccccc2)nc1-c1cc2ccccc2o1		inactive: -17.4%
CC1C(=O)NN=C1C(=O)N/N=C/c1cccs1 (stereo unspecified)		inactive: -19.5%
CC1=CC(=Nc2c(C)n(C)n(-c3ccccc3)c2=O)C=CC1=O	active: 3.54 µM	
C/C(=N\NC(=O)c1ccccc1Cl)c1ccccn1	inconclusive: 39.8 µM [inhibitor, single point]	
COc1ccc(C(=O)Nc2ccc(CN3CCS(=O)(=O)CC3)cc2)cc1		inactive: 4.34%
C=CCNC(=S)Nc1ccc2cn[nH]c2c1	inconclusive: 17.7 µM [inhibitor, partial curve]	
COc1cc(OC)cc(OCC(O)Cn2cnc(-c3ccccc3)c2)c1 (stereo unspecified)	inconclusive: 22.3 µM [inhibitor, single point]	
Cc1[nH]c2ccccc2c1/C=N/NC(=O)c1cccc(S(=O)(=O)Nc2ccccc2Cl)c1	inconclusive: 17.7 µM [inhibitor, partial curve]	
O=C1CSC(=S)N1/N=C/c1ccc(O)c(O)c1O	active: 7.92 µM	
COCCCn1nnnc1SCC(=O)Nc1ccc2c(c1)OCCO2		inactive: -2.59%
Cc1cc(C)nc(N/N=C/c2cccc([N+](=O)[O-])c2)n1	inconclusive: 19.9 µM [inhibitor, partial curve]	
COc1ccc(-c2nnc(-c3ccc(C)cc3)o2)cc1		inactive: 2.47%
N#C/C(=C\c1ccccc1Cl)C(=O)Nc1ccccn1		inconclusive: 43.7% [activator]
CN1C2C=C3C(C#N)=C(N)C(C#N)(C#N)[C@@H](c4cccs4)C3C1CC2 (stereo partly specified)	inconclusive: 14.1 µM [inhibitor, partial curve]	
CCCC[C@H]1CCCO[C@@](C(=O)NCc2ccccc2)(C(F)(F)F)C1		inactive: 0.0618%
Cc1cc2oc(=O)cc(CN3CCN(S(=O)(=O)/C=C/c4ccccc4)CC3)c2cc1C		inactive: -1.85%
CC(C)(C)NC(=O)COc1ccc(CNc2ccc3[nH]c(=O)[nH]c3c2)cc1	inconclusive: 12.6 µM [inhibitor, partial curve]	
COc1ccc(NC2CC(=O)N(c3cccc(C)c3)C2=O)cc1 (stereo unspecified)	inconclusive: 14.1 µM [inhibitor, partial curve]	
C=CC[C@@H]1Cc2c(Br)ccc(Br)c2[C@@H](CC=C)N1	inconclusive: 25.1 µM [inhibitor, partial curve]	
